Consider 90 compounds from PubChem BioAssay AID463173 (ICCB-Longwood Screening Facility, Harvard Medical School, 2010).

In all, about 52,000 compounds went through this assay and about 1,700 (3.3%) were called active. Rule as the data show it: active = survival mostly below about 52% (no sharp cut-off); inactive = mostly above about 56%. The list shows a part of the results.

The test system of this assay is Wild type. Nature of the assay: growth inhibition of S. aureus wild type versus tarO mutant, primary screen, teichoic acid synthesis inhibitors, RN4220, OD600 (AID 463173). Particulars: S. aureus RN4220 wild type/DeltatarO growth, OD600, 18 h, active compounds read low, screened at 18.75 µg/mL (by protocol).
With `CCc1nn(CC(=O)Nc2c(C)cccc2C)c(=O)c2cc3sccc3n12`, the survival is inactive: 88%.

In the case of `O=C(CSc1nc2c([nH]c3ccccc32)c(=O)n1-c1ccccc1)Nc1ccc(Cl)c(Cl)c1`, the survival was inactive: 90%. As to `COc1cc(NC(=O)N2CCC3(CC2)Nc2ccccc2-n2cccc23)cc(OC)c1OC`, the survival was inactive: 95%. With `COc1ccc(-c2cc(OC(=O)c3cccc(Cl)c3)c3c(C)oc(C)c3c(=O)c2)cc1` the figure was inactive: 131%. `CCOc1ccc(NC(=O)Cn2nnc(C(=O)NCCc3ccccc3)c2N)cc1`: the survival is inactive: 93%. With `Cc1ccc2nc(-c3cccnc3)c(Nc3ccc(C(C)C)cc3)n2c1`, the survival was inactive: 75%. On to `O=C(COc1ccc2ccccc2c1)NC1CC(=O)N(c2ccccc2)C1` (stereo not given), for which the survival is inactive: 85%. Take `CCOC(=O)c1cnc2c(-c3ccccc3)c(C(F)(F)F)nn2c1C`: the survival was inactive: 98%.

For `CCOC(=O)c1noc2ncn(CC(=O)Nc3cccc(Cl)c3)c(=O)c12`, the survival is inactive: 73%. With `O=C(CSc1c2c(nc3cc(Cl)ccc13)CCCC2)N1CCN(c2ccccc2F)CC1` the figure was inactive: 69%; with `CN(C)c1ccc(C2NCCS2)cc1` (stereo not given), inactive: 99%; with `COc1ccccc1NC(=O)CSc1oc(-c2ccccc2)nc1S(=O)(=O)c1ccc(C)cc1`, inactive: 145%. As to `Cc1cn2c(=O)c(S(=O)(=O)N3CCN(c4cc(Cl)ccc4C)CC3)c(C)nc2s1`, the survival was inactive: 90%. As to `O=C(c1ccc(F)cc1)n1nc(-c2cccnc2)nc1NCc1ccc(F)cc1`, the survival was inactive: 79%. For the compound `Cc1nc(-c2ccc(S(=O)(=O)N3CCN(c4cc(Cl)ccc4C)CC3)cc2)co1`, the survival is inactive: 72%. In the case of `O=C(NCCc1ccc(Cl)cc1)C1COc2ccccc2C1` (stereo not given), the survival is inactive: 88%. `CCNC(=O)c1sc2ccccc2c1Cl`: the survival is inactive: 124%. Consider `CN(C)CCCNc1cn[nH]c(=O)c1Cl`, for which the survival was inactive: 105%. Consider `Brc1ccc2ncnc(NCCCN3CCOCC3)c2c1`, for which the survival was inactive: 114%. Regarding `O=C(Nc1cccc(-c2nc3cccnc3s2)c1)c1cccc(Br)c1`, the survival is inactive: 33%. As for `CCOC(=O)c1ccc(NC(=O)c2cn(-c3ccccc3)nc2-c2ccc(OC)c(OC)c2)cc1`, the figure is inactive: 140%; as for `COc1ccccc1NC(=O)C1=C(C)Nc2sc(C#N)c(N)c2C1c1ccco1` (stereo not given), inactive: 107%; as for `O=C(Cn1c(=O)oc2cc(S(=O)(=O)N3CCCC3)ccc21)Nc1ccc(F)cc1F`, inactive: 88%. With `CCNC(=O)CC1C(=O)N(c2ccc(C)cc2)C(=O)N1CCC(C)C` (stereo not given) the figure was inactive: 84%; with `COc1ccc2c(Sc3ccc(Cl)cc3)c(C(=O)N3CCC(C)CC3)[nH]c2c1`, inactive: 38%; with `Cc1ccc(S(=O)(=O)c2nc(-c3cccs3)oc2SC(C)C)cc1`, inactive: 64%. Consider `N#Cc1ccccc1NC(=O)C(=O)NCCc1csc(-c2ccc(F)cc2)n1`, for which the survival was inactive: 72%.

With `O=C(c1cccc(Cl)c1)n1nc(-c2cccnc2)nc1NCc1ccccc1`, the survival is inactive: 82%. As for `CCCCOc1cccc(NC(=O)c2cccc(C(=O)Nc3cccc(OCCCC)c3)c2)c1`, the survival is inactive: 73%. `CCOC(=O)c1c(C)oc2nc(C)nc(NCc3cccc(Cl)c3)c12`: the survival is inactive: 82%. As for `CCOC(=O)c1nc(Nc2ccc(C(=O)OC)cc2)c2ccccc2n1`, the figure is inactive: 93%; as for `CCc1ccccc1NC(=O)c1ccc(=O)n(Cc2ccc(F)cc2)c1`, inactive: 60%. With `CCc1ccc(-n2c(=O)c3cccnc3n2CC(=O)Nc2cc(OC)ccc2OC)cc1` the figure was inactive: 74%; with `CC1CCN(C(=O)c2cccc(Cl)c2)CC1`, inactive: 112%. `CSCCC(NS(=O)(=O)c1ccc2c(c1)oc(=O)n2C)C(=O)N1CCN(c2ccc(C(C)=O)cc2)CC1` (stereo not given): the survival is inactive: 91%. For `COc1cccc(C(=O)NCC(=O)OCc2cc(=O)n3ccsc3n2)c1`, the survival was inactive: 126%. With `COc1cc(OC)cc(C(=O)Nc2nnc3n2CCS3)c1`, the survival is inactive: 72%. As for `Cc1ccc(C(=O)Nc2nc(-c3nnn(-c4cccc(C(F)(F)F)c4)c3C)ns2)cc1`, the figure is inactive: 75%. For the compound `CCc1nnc(NC(=O)c2sc3nc4ccc(OC)cc4cc3c2N)s1`, the survival is inactive: 109%. For `Cc1ccc(CCNC(=O)c2cn(C)c3ccc(S(=O)(=O)N4CCC(C)CC4)cc3c2=O)cc1`, the survival was inactive: 82%. With `Cc1cc(C)c(NC(=O)CCCn2c(C)c3cnn(-c4ccccc4)c(=O)c3c2C)c(C)c1` the figure was inactive: 123%. For `CC(C)CC(=O)Nc1nnc(SCc2cc(=O)n3ccccc3n2)s1`, the survival was inactive: 82%. Take `CCN(CC)S(=O)(=O)c1ccc2[nH]cc(C(=O)NCCc3ccccc3)c(=O)c2c1`: the survival was inactive: 84%. Take `O=c1c(S(=O)(=O)c2cccc(Cl)c2)cn(Cc2ccccc2)c2cc(N3CCCCC3)c(F)cc12`: the survival is inactive: 67%. For `COc1ccccc1NC(=O)CN1C(=O)CSc2ccc(S(=O)(=O)N3CCCC3)cc21`, the survival was inactive: 98%.

On to `CCOC(=O)c1c(S(=O)(=O)NCC(=O)Nc2ccc(F)cc2C)c(C)n(C)c1C`, for which the survival was inactive: 84%. In the case of `COc1cc(OC)cc(-c2nc3nc(C)c(CCC(=O)NCCC(C)C)c(C)n3n2)c1`, the survival was inactive: 77%.

Take `O=C(Nc1ccccc1C(F)(F)F)c1ccncc1`: the survival is inactive: 83%. As for `COc1cc(OC)c(NC(=O)c2c(C)oc3nc(C)nc(N4CCOCC4)c23)cc1Cl`, the survival was inactive: 81%. As for `CCOC(=O)C1=C(O)CSC1=NC(=O)c1ccc(OC)cc1`, the survival is inactive: 121%. As for `CCn1ccc2cc(S(=O)(=O)N3CCC(C(=O)NCCc4ccccc4)CC3)ccc21`, the figure is inactive: 66%; as for `CC(=O)C1=C(c2ccc(Br)cc2)N(C(C)=O)n2c(nnc2C2CCCCC2)S1`, inactive: 72%; as for `Cc1cccc(CNC(=O)c2ccc(C)c(-n3c(C)nc4cccnc43)c2)c1`, inactive: 73%. `CCOc1ccc(-n2c(=O)c3c(C)c(C)sc3n(CC(=O)N3CCC(C)CC3)c2=O)cc1`: the survival is inactive: 88%. On to `O=C(NCc1ccccc1Cl)c1ccc(Cn2c(=O)c3cccn3c3cccnc32)cc1`, for which the survival is inactive: 111%. Turning to `COc1cccc(-n2cc(C(=O)OCc3ccc(Cl)cc3)c3ccccc3c2=O)c1`, the survival is inactive: 94%. For the compound `COCCCNC(=O)c1cnn(-c2ccc(F)cc2F)c1C1CCNCC1`, the survival was inactive: 118%. Regarding `CC(/C=C/c1ccccc1)=N\Nc1nc2c(c(=O)[nH]c(=O)n2C)n1CC(O)COC(C)C` (stereo not given), the survival was inactive: 108%. As for `Cc1ccc2scc(N3CCCCC3)c(=O)c2c1`, the figure is inactive: 85%; as for `COc1ccc(NC(=O)CC2C(=O)N(c3ccc(F)cc3)C(=O)N2CCc2sccc2C)cc1` (stereo not given), inactive: 75%. Take `CCOC(=O)c1cc(-c2ccccc2)n(CCC(=O)Nc2cc(C)cc(C)c2)c1C`: the survival is inactive: 80%. With `Nc1ccc2nc(-c3ccc(O)cc3)sc2c1` the figure was inactive: 146%. Consider `O=C(NC1CCCCC1)N1CCN(Cc2ccccc2)CC1`, for which the survival is inactive: 108%. For `Cc1ccc(N2CCN(C(=O)C3CCN(c4ncnc5c4nc4n5CCCCC4)CC3)CC2)c(C)c1`, the survival was inactive: 55%. `Cc1ccc2nc(NC(=O)c3nc(SCc4ccccc4C)ncc3Cl)sc2c1`: the survival was inactive: 113%. As to `CN(Cc1ccccc1)C(=O)C1CCC(CNS(=O)(=O)c2ccc3c(c2)CCCC(=O)N3)CC1` (stereo not given), the survival is inactive: 131%. In the case of `Cc1ccc(S(=O)(=O)N2CCC(NC(=O)c3ccccc3)CC2)cc1`, the survival is inactive: 101%.

As to `Cc1ccc2ncc(C(=O)NC(C)c3ccccc3)c(=O)n2c1` (stereo not given), the survival is inactive: 91%. For `Cc1cc(C)c(NC(=O)CS(=O)CC(=O)N2CCN(c3ccccc3)CC2)c(C)c1` (stereo not given), the survival was inactive: 102%.

On to `O=C(O)CCc1nnc2cnc3ccccc3n12`, for which the survival was inactive: 136%. With `CCc1nn(CC(=O)NCCCc2ccccc2)c(=O)c2cc3c(OC)cccc3n12`, the survival was inactive: 93%. For `COc1cc(NC(=O)NCC2CCN(Cc3ccc(C)cc3)CC2)cc(OC)c1OC`, the survival was inactive: 131%. In the case of `Cc1ccc(N2C(=O)CS(=O)(=O)C23C(=O)N(C)c2ccccc23)cc1F` (stereo not given), the survival is inactive: 75%. For the compound `Cc1ccc(C)c(Nc2cc(C(=O)NCCCN(C)C3CCCCC3)c3ccccc3n2)c1`, the survival is inactive: 99%.

With `Cc1ccc(N2CCN(C(=O)c3c(C)oc4ncnc(N5CCOCC5)c34)CC2)c(C)c1`, the survival is inactive: 83%.

`Cc1ccc(CNC(=O)c2cnc3c(-c4ccccc4)c(C)nn3c2C)o1`: the survival is inactive: 76%. Consider `O=[N+]([O-])c1cc(-c2nc(-c3ccccn3)no2)ccc1NCc1ccccc1`, for which the survival is inactive: 73%. As for `Cc1ccc(C(=O)Nc2nnc(S(=O)(=O)N3CCN(c4ccc(F)cc4)CC3)s2)cc1`, the figure is inactive: 86%. Consider `Cc1ccc(CN2CCCn3nc(C(=O)NCc4cc(C)ccc4C)cc3C2=O)cc1`, for which the survival was inactive: 82%.

Turning to `Cc1cc(N2CCCC(O)C2)n2nc(C)c(-c3ccc(F)cc3)c2n1` (stereo not given), the survival was inactive: 120%. As for `CCc1cccc(NC(=O)CSc2ncc3c(n2)-c2ccccc2N(CC)S3(=O)=O)c1`, the figure is inactive: 95%; as for `COc1ccc(NC(=O)C(C)n2nc(-c3cc(C)ccc3C)c3c(c2=O)CCCC3)cc1` (stereo not given), inactive: 70%; as for `COCCNC(=O)CSc1nc2cc3c(cc2c(=O)n1Cc1ccc(C(=O)NCCc2ccc(OC)c(OC)c2)cc1)OCO3`, inactive: 79%.

As for `CCOc1ccc(NC(=O)CSc2nnc(-c3ccncc3)n2-c2ccccc2)cc1`, the survival is inactive: 127%.

`COCCCNC(=O)CCC(=O)NNc1nc2ccccc2c2nc(-c3ccccc3)nn12`: the survival is inactive: 88%.

For `O=C(NCCc1ccccc1)C(=O)NCC(c1ccco1)S(=O)(=O)c1ccccc1` (stereo not given), the survival was inactive: 90%. As for `COc1ccc(CNC(=O)c2ccc(CSc3nc4ccncc4n3Cc3ccccc3F)cc2)cc1`, the figure is inactive: 83%. As for `CCOc1ccc(Nc2ncnc3c2cnn3-c2ccc(F)cc2)cc1`, the figure is inactive: 60%; as for `CCOC(=O)C(=O)Nc1nnc2n1CCS2`, inactive: 71%. Turning to `Cc1nc(N2CCCC2)ncc1C(=O)N1CCN(c2ccc(Cl)cc2)CC1`, the survival is inactive: 99%.
